The values that follow come from the supplement of paper PMC11417369.

± gives the standard deviation of the averaged measurements. This is one part of the list.

This assay relates to PfAP2-EXP AP2 domain (GST-tagged). The assay is described as follows: gcPBM binding intensity (ln(normalized median fluorescence intensity)); higher = stronger DNA binding. In short, it runs like this:
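Plasmodium falciparum DNA-binding domains carrying a GST tag were expressed in E. coli and applied for 1 h, at about 25 μg on average, to an Agilent 4 × 180k array. The array held primer-extended double-stranded 36-bp intergenic genomic probes together with negative controls, and binding took place in 1× PBS with 1% milk, 0.2 mg/ml BSA, 0.5% salmon testes DNA and 0.03% Triton X-100. An Alexa488 anti-GST antibody detected bound protein, and the array was scanned at 488 nm. Binding intensity is taken as the highest Masliner-normalised natural-log median intensity across replicate spots of either probe orientation.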
Take “AAATGATGCATTTGTCATTAAAATTGTGAAATATTA [CACACA_negctrl_site231]”: the “gcPBM binding intensity (ln)” value came out at 8.41 ± 0.49.

As to “ATAATATCTTCTTTTTTTTTTTTTTTTTTTTTTTTT [CACACA_negctrl_site1005]”, the “gcPBM binding intensity (ln)” value was 9.065 ± 0.049.

As for “ATATATATATAATGTGTACACACATATGTATTTATA [CACACA_site8170]”, the “gcPBM binding intensity (ln)” value was 9.78 ± 0.15.

“TAATTAAGATGATAAAAATTGAAAAAACAATTTTAA [CACACA_negctrl_site658]”: the “gcPBM binding intensity (ln)” value turned out to be 8.02 ± 0.49.

For the sequence “TATAATAAAATATGTACACACATACAGACATATATA [CACACA_site6693]”, the “gcPBM binding intensity (ln)” value is 8.64 ± 0.35.

In the case of “CATATAGTATAAATTTGTACATAAATATATATATAT [XGTACX_site7477]”, the “gcPBM binding intensity (ln)” value was determined as 9.67 ± 0.23.

As to “AGAGTATATAAAGTAACACACAATAAAATAAAATAA [CACACA_site2328]”, the “gcPBM binding intensity (ln)” value turned out to be 8.85 ± 0.28.

As for “AAGAAATATATATATATATATATATATATATATGTA [TGCATGCA_negctrl_site442]”, the “gcPBM binding intensity (ln)” value is 8.925 ± 0.078.

Take “TAATTTTATATTAAAAGTACATAATAAAAACTATAA [XGTACX_site8779]”: the “gcPBM binding intensity (ln)” value stood at 8.37 ± 0.3.

Consider “TACATACACGGACACACACACATATATATATATATA [CACACA_site5883]”, for which the “gcPBM binding intensity (ln)” value worked out at 10.2 ± 0.36.

Turning to “TGATGATATAAAAACACACACATATAATATAATACT [CACACA_site1208]”, the “gcPBM binding intensity (ln)” value was 8.7 ± 0.44.

For “CACTAATATATATACAGTACATAATAAAGTATATAA [XGTACX_site6875]”, the “gcPBM binding intensity (ln)” value came to 8.39 ± 0.33.

As for “TTTAAAAACAAATATTGTACAAATTAAAATATATCA [XGTACX_site7220]”, the “gcPBM binding intensity (ln)” value is 8.6 ± 0.33.

Consider “AGAGCATAATAAAACACACACATACATACAGATATA [CACACA_site4671]”, for which the “gcPBM binding intensity (ln)” value turned out to be 8.69 ± 0.49.

As to “TATTACCCATATTATACACACATATATTATATATAT [CACACA_site1567]”, the “gcPBM binding intensity (ln)” value came out at 8.7 ± 0.26.

As to “CTGTTTTACTTTAGTAGTACAATAAAAATATAAAAA [XGTACX_site2934]”, the “gcPBM binding intensity (ln)” value was 8.57 ± 0.19.

In the case of “AAAAAAAAAAAACATACACACAAATATATACATACA [CACACA_site4011]”, the “gcPBM binding intensity (ln)” value was 8.54 ± 0.69.

In the case of “TAAATTTGTGGGATTTCACACAGGTTTATTTACATT [CACACA_site5455]”, the “gcPBM binding intensity (ln)” value came to 8.13 ± 0.45.

Regarding “TTCAGAGAATAAAAATGTACATATAATATTTTAAAA [XGTACX_site577]”, the “gcPBM binding intensity (ln)” value amounted to 8.37 ± 0.37.

“ATGTAGGTTAATTATTGTACGTAGGGGGTGTATATT [XGTACX_site3973]”: the “gcPBM binding intensity (ln)” value turned out to be 10.2 ± 0.48.

For “CTCTTGTCATTTTGCACACACACATGTATAGGTTAT [CACACA_site3057]”, the “gcPBM binding intensity (ln)” value came out at 9.39 ± 0.23.

Take “GTTTACTAATATTGCACACGAATATGAAAAAGAGAA [CACACA_site2897]”: the “gcPBM binding intensity (ln)” value is 8.88 ± 0.25.

Turning to “TTTCTAATTTATATCACACACATATATTTATAGTAA [CACACA_site6280]”, the “gcPBM binding intensity (ln)” value was determined as 8.43 ± 0.32.

Consider “TTGCTTATTAAATGGGGTACATTATATATATATATA [XGTACX_site2515]”, for which the “gcPBM binding intensity (ln)” value came out at 9.89 ± 0.32.

On to “GTGTTAACTATTATGAGTACTTATGTATTAATTCAT [XGTACX_site7767]”, for which the “gcPBM binding intensity (ln)” value is 8.62 ± 0.19.

With “ATACCTGTTGTGTTACGTACATAATTTTAATGTTTG [XGTACX_site8181]”, the “gcPBM binding intensity (ln)” value was 8.77 ± 0.41.

For the sequence “AAATTCAATTTGCGCTGTACATGAAGATATAAATTT [XGTACX_site4844]”, the “gcPBM binding intensity (ln)” value amounted to 9.02 ± 0.52.

In the case of “TATTTTTTAAAAAATTATAAATAAAATTATATTACG [CACACA_negctrl_site324]”, the “gcPBM binding intensity (ln)” value worked out at 8.19 ± 0.43.

For the sequence “TATATATATAAATACACACACACACCCCAAAGCGTA [CACACA_site4211]”, the “gcPBM binding intensity (ln)” value worked out at 9.18 ± 0.46.

On to “AAAAAAAACACGCGCACACACACACCCACAGACACA [CACACA_site5253]”, for which the “gcPBM binding intensity (ln)” value amounted to 8.62 ± 0.5.

Consider “ACAGTATATTAAAAAATACACACGTATTATATCTAC [CACACA_site2640]”, for which the “gcPBM binding intensity (ln)” value came to 8.27 ± 0.37.

On to “TATAATATATTCACTCGTACATATTTAATAATATCT [XGTACX_site6209]”, for which the “gcPBM binding intensity (ln)” value was 8.54 ± 0.42.

With “ATTTTATTTTTGTGCACACTGATAAATTGAAAAGAG [CACACA_site2948]”, the “gcPBM binding intensity (ln)” value worked out at 9.11 ± 0.18.

Turning to TATTACACATATTATGTGCACATATATAATCAATAT, the “gcPBM binding intensity (ln)” value was found to be 9.04 ± 0.092.

On to “AAAAAAAAAAATTAAAGTACTAATTAAAATTATATG [XGTACX_site5289]”, for which the “gcPBM binding intensity (ln)” value was determined as 8.17 ± 0.35.

For “TATATATATATAATATGTACATATATTAAGCATTTT [XGTACX_site4470]”, the “gcPBM binding intensity (ln)” value was determined as 9.53 ± 0.042.

As for “ATAAATTTTTTATGAACACACAAATACCCACGCTCA [CACACA_site2659]”, the “gcPBM binding intensity (ln)” value is 8.79 ± 0.43.

Turning to “TTTTAATTAAATAAATGTACTCATTCTATTATTTAT [XGTACX_site3032]”, the “gcPBM binding intensity (ln)” value turned out to be 8.41 ± 0.35.

For the sequence “AATAAAAAACATGAAAGTACTTTAAAAAAGGTAATA [XGTACX_site1897]”, the “gcPBM binding intensity (ln)” value was 8.9 ± 0.45.

“AAGTACATACATAAAACACACACATATATATATATA [CACACA_site8541]”: the “gcPBM binding intensity (ln)” value was 10.2 ± 0.17.

With “AATATATAAATCAATAGTACATATATATATATATAT [XGTACX_site3898]”, the “gcPBM binding intensity (ln)” value was 10 ± 0.35.

Take “ATTAAGTACTAAAAAGTGCAGTTCGGTACTGTGCTT [GTGCAC_site9755]”: the “gcPBM binding intensity (ln)” value worked out at 8.42 ± 0.014.

In the case of “ATGTATAAACAAAAGGGTACATATATATATATATAT [XGTACX_site2087]”, the “gcPBM binding intensity (ln)” value was found to be 10.1 ± 0.49.

As for “AGAAAAATTACAAAATGTACATAATGTGTTATTAAT [XGTACX_site7877]”, the “gcPBM binding intensity (ln)” value is 8.55 ± 0.46.
